Results as given in the supplement of paper PMC11417369.
± gives the standard deviation of the averaged measurements. Some of the results follow.

Test system: PfAP2-EXP AP2 domain (GST-tagged)
Assay: gcPBM binding intensity (ln(normalized median fluorescence intensity)); higher = stronger DNA binding
In short: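 Plasmodium falciparum DNA-binding domains carrying a GST tag were expressed in E. coli and applied for 1 h, at about 25 μg on average, to an Agilent 4 × 180k array. The array held primer-extended double-stranded 36-bp intergenic genomic probes together with negative controls, and binding took place in 1× PBS with 1% milk, 0.2 mg/ml BSA, 0.5% salmon testes DNA and 0.03% Triton X-100. An Alexa488 anti-GST antibody detected bound protein, and the array was scanned at 488 nm. Binding intensity is taken as the highest Masliner-normalised natural-log median intensity across replicate spots of either probe orientation.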

| Sequence | gcPBM binding intensity (ln) |
| --- | --- |
| TATATATATATATATATATATACAAATATATATTAT [CACACA_negctrl_site1729] | 10.1 ± 0.27 |
| TTTAGATAATTCATTACACACATGTATTTATATATA [CACACA_site5847] | 8.46 ± 0.33 |
| TTGTATTATTATGTTGCACACATTTTATATAAAATA [CACACA_site3641] | 9.06 ± 0.31 |
| ATAAAAGATATTTTTACACACTTTTGATGAGATCGT [CACACA_site3053] | 8.43 ± 0.38 |
| GGTTGTATAAGTTTTTGTACATATATATATATATAT [XGTACX_site7487] | 10.2 ± 0.49 |
| TTCAAGGTTTTAGATTGTACAATTATTATATATATA [XGTACX_site8982] | 9.01 ± 0.042 |
| ATACCAACATATTATACACACCTTTATATTTTTTTT [CACACA_site5217] | 8.8 ± 0.33 |
| ATATGTAGATGATATTATTACTTTTCAAAAATTCAA [CACACA_negctrl_site933] | 8.21 ± 0.39 |
| TAATAAGAAATAACAGGTACACATATATAAATATTA [XGTACX_site2976] | 8.54 ± 0.33 |
| TTTTTCATTAATACAAGTACAAAATGATGTTGACAT [XGTACX_site1475] | 8.3 ± 0.3 |
| AAGTATAAAAAAAGGCGTACAAAAAAAAAAAAAAAA [XGTACX_site7309] | 8.41 ± 0.5 |
| TGTGCCCAAAATTATGCACACACCTAAAATTAATTT [CACACA_site2914] | 8.69 ± 0.071 |
| ATGGTAGTTCTCCATGCATGCCTTTTTATTATCATA [TGCATGCA_site681] | 9.28 ± 0.38 |
| TTTTTGTAAAAACACACACACAAACAGAAAAAATAA [CACACA_site2076] | 9.04 ± 0.52 |
| ATTATCATAATGTTCACACATATGGTATATATAGAT [CACACA_site6113] | 8.62 ± 0.35 |
| TTTTATCTTTTTTTATTTTAATGTATTATTTTTATG [XGTACX_negctrl_site24] | 8.73 ± 0.59 |
| ACTATTTAGTCTGGTGGTACTTTATATATAATTTCT [XGTACX_site5618] | 8.53 ± 0.91 |
| ATATGTGTATGTGCGTGTACATATCTATACAGTTGT [XGTACX_site6540] | 8.79 ± 0.16 |
| ATAAATAAAGGACACACACACACACTAGAAAAAAAA [CACACA_site5450] | 8.84 ± 0.64 |
| TTGTGCTTGATATCACGGACAAGCTCATATTATATA [XGTACX_site4553] | 8.37 ± 0.35 |
| AAAATAAAATTAGTTGCATGCAACTTAAACAGAAAT [TGCATGCA_site860] | 10.3 ± 0.35 |
| TATATTATTAAGATATGTACATAATTATAAATTTAA [XGTACX_site6848] | 8.52 ± 0.45 |

| Sequence | gcPBM binding intensity (ln) |
| --- | --- |
| ATGAAAAAATTTATATGTACTTAAAATATAATCATA [XGTACX_site1228] | 8.19 ± 0.32 |
| TATAAATATAAATATACACACATATTTATATTTATA [CACACA_site7053] | 8.37 ± 0.37 |
| CTCTATAAATGCTGCACACACATTTAATTATTTAAG [CACACA_site2582] | 8.63 ± 0.25 |
| TATAAATAAAAACACACACACACATATATATATATA [CACACA_site2268] | 9.99 ± 0.39 |
| TTTTACAATGAAAGGTGTACAAGTAACAGTAGAACA [XGTACX_site1528] | 9.01 ± 0.25 |
| AAATGAAATACATCCTGTACATAGTAATGCTAACAA [XGTACX_site6600] | 8.6 ± 0.38 |
| GATATATATTAATATACACACACACCGATATATATA [CACACA_site8462] | 8.78 ± 0.43 |
| TATTTTTATATTTTTGCACACATTCTTTACTCTTCA [CACACA_site2211] | 9.13 ± 0.3 |
| AAAAATTTTATATTCACACACATATATATATATATA [CACACA_site624] | 10.2 ± 0.42 |
| AACAAATACAGACACACACACACACTAATAAAAAAA [CACACA_site8067] | 8.66 ± 0.52 |
| AAATTCCACCAACACACACACATATAAATAAATAAA [CACACA_site1233] | 8.52 ± 0.53 |
| AATAAATAGATAAGCACACAAGCATATAGACATATA [CACACA_site222] | 8.6 ± 0.49 |
| TTTTGAAACATATGATGTACACGAACATTTAAAAAA [XGTACX_site474] | 8.79 ± 0.39 |
| TTTATATTTTATAAATTATTCATAAATATATTTGTA [TGCATGCA_negctrl_site175] | 8.1 ± 0.43 |
| AAATTTGGTGAAGGATGTACTTTACCTAATACTTGT [XGTACX_site4825] | 8.49 ± 0.33 |
| AAAACAAAAAAATTTTGTACGAAACAATACTGTAAG [XGTACX_site7992] | 8.61 ± 0.38 |
| TATATATATTGTTATTGTACACAAATATAGGAAATA [XGTACX_site7110] | 8.56 ± 0.23 |
| ATAAATTAAACAAACACACACGTTCTTTTATTTACT [CACACA_site4556] | 8.53 ± 0.45 |
| AAAAAAATATATTCCTAATTTATGATTAAAAGGAAT [CACACA_negctrl_site751] | 8.1 ± 0.3 |
| TTTTTTTTTGGGTGTACACATGAATATATATTTTTT [CACACA_site5254] | 8.77 ± 0.32 |
| AGAATTATATCATGGTGTACTTATTTGTTTATTTCT [XGTACX_site5795] | 8.73 ± 0.38 |
| GAATAAATAAAAATATGTACATAAATATATATATAT [XGTACX_site8858] | 9.88 ± 0.22 |

| Sequence | gcPBM binding intensity (ln) |
| --- | --- |
| AAAAAAAAAAAATATATATATATATATATAATATTT [GTGCAC_negctrl_site678] | 8.3 ± 0.24 |
| AAAAAAAAATAAAAAAGTACAGGTAAATATATATAT [XGTACX_site5812] | 9.42 ± 0.16 |
| AAGACAAATATGTATTGTACGAACGCTTTTTAATTA [XGTACX_site1961] | 8.53 ± 0.47 |
| ATACTTTAAAATAATACACACATGGAAAATAAAATT [CACACA_site697] | 8.76 ± 0.57 |
| TTTATAAAATATCTTTCACACATTACTATGTATTAT [CACACA_site5148] | 8.44 ± 0.37 |
| ATAAAAGTTTAATATTGTACGAACATGCGTTTCTAA [XGTACX_site1487] | 8.3 ± 0.46 |
| ATAAATAGAATAAAATGTACATGTAATACATATATA [XGTACX_site5475] | 8.53 ± 0.3 |
| TTCTTAAAAAATCAAACACACATATATATATACATA [CACACA_site2296] | 8.56 ± 0.37 |
| GTTTAGATAAAAGGGCGTACATCTATTTTTGACTAA [XGTACX_site7170] | 8.38 ± 0.35 |
| AAAAAAAAAAAAAAAACACACAATTGAATTATTAAG [CACACA_site2864] | 8.51 ± 0.26 |
| TTTTATTATTAAACATGTACCCATATTATTGTTATG [XGTACX_site5563] | 8.7 ± 0.37 |
| TTATTGCGCACAATTTGTACATATATATATATAGAA [XGTACX_site7573] | 9.05 ± 0.2 |
| AATTTATTAATACAAAGTACTTTCTAATATGAATTT [XGTACX_site8013] | 8.37 ± 0.42 |
| ATATTTATACTATACACACCCAATTTAAAAAAAAAT [CACACA_site1163] | 8.71 ± 0.52 |
| GAAAAATTAAAATGTGGTACAATAAAATTTTATTCA [XGTACX_site5030] | 8.41 ± 0.33 |
| GTAAGAAACAGACACACACACATATAAATATAAATA [CACACA_site6515] | 8.77 ± 0.64 |
| TATTGAAAAAGTGGAAAAAAGTACATCATACGGGAA [CACACA_negctrl_site1091] | 9.04 ± 0.37 |
| TATATACATTTTTATGTGCACATTTTATTTTTAAAT | 9.15 ± 0.31 |
| TAAATCACAAAATTATGTACTAAGAAGGAGCAACAT [XGTACX_site6742] | 8.88 ± 0.32 |
| TATACCTTAATATACACACATACATATATATATATA [CACACA_site1339] | 9.96 ± 0.54 |
| GGGGAAAAAGCAGGTTGTACAGTGATGTCCATATAA [XGTACX_site7606] | 8.77 ± 0.32 |
| TAACAAAGTAAAAGAACATGCAAACACGCACACAGA [TGCATGCA_site374] | 9.02 ± 0.2 |

| Sequence | gcPBM binding intensity (ln) |
| --- | --- |
| AGTGTATTAAATTTTGAACACACAAAATAAAACATA [CACACA_site8483] | 8.54 ± 0.29 |
| TTTTAATTTAAAAATTAATTTATATATATATATATA [TGCATGCA_negctrl_site447] | 10.3 ± 1 |
| TTTAGACTTTTCTATAGTACATATTATATATATATA [XGTACX_site6532] | 9.66 ± 0.2 |
| AAACGTTTATTTTATTGTACATATGAAAAATGCTTC [XGTACX_site6896] | 8.68 ± 0.36 |
| AACATTATCAAATAAACCATAAATCAATTCAATATG [CACACA_negctrl_site696] | 8.47 ± 0.2 |
| AAAAAAAAAAAAAATTGTACGGATTCTTTTTTTTTT [XGTACX_site2898] | 8.4 ± 0.39 |
| ATATTTTTTTTTTTCACACACATTTAGATTGTATTA [CACACA_site3137] | 8.65 ± 0.54 |
| TTGTATAAAAAACTAAAAAATATAAAATAATAAGTG [CACACA_negctrl_site1704] | 8.62 ± 0.45 |
| ATTACATTTTTGTTTTGTACATATATTTTATAAACA [XGTACX_site494] | 8.78 ± 0.37 |
| CGTAATAATTAATGTTGTACCCACCAAAAAAATTAA [XGTACX_site8592] | 8.49 ± 0.26 |
| TTGTTTTGTAATAAAAAAAAAATAATATAATATAAT [XGTACX_negctrl_site300] | 8.2 ± 0.3 |
| TATATTTATATATATACACACATAATAAAAAATATA [CACACA_site844] | 8.35 ± 0.38 |
| TTTATAGTTTTAAACAAAGTAATACAAATGTATATA [CACACA_negctrl_site1716] | 8.24 ± 0.37 |
| GAAATATTGAAACACACACACAAACATATATATATA [CACACA_site1911] | 9.89 ± 0.11 |
| TATAAAAAAAATAAAATAAAATAAAATAGAAAAATA [TGCATGCA_negctrl_site109] | 8.54 ± 0.5 |
| GAAAAAAAAAAAAAAAGTACATTCTCTATTTCATGT [XGTACX_site3209] | 7.96 ± 0.34 |
| ATAAATTTAAATAGGAGTACACAGCTTTATATTTTG [XGTACX_site4176] | 8.62 ± 0.39 |
| TAATTACCATATGGTACACACATATTTATAGGTATA [CACACA_site7603] | 8.57 ± 0.32 |
| ACGTATAATATGTACACACACATATATACCAAAAAA [CACACA_site4661] | 8.47 ± 0.42 |
| GATAAAATAATATATAGTACTTTTTTAAAATAAATA [XGTACX_site522] | 8.06 ± 0.2 |
| CGCGCACCCAGACACACACACACACCCATATATATA [CACACA_site2203] | 8.9 ± 0.3 |
| AATTTTAAATTTAATTTACACACTTTTCATAGCATT [CACACA_site9264] | 8.46 ± 0.47 |
